Not every detail of the peptide structures is certain; ends, links or a residue may be inferred. Where a SMILES comes first, the peptide text is derived from it.
Target: CXCR4 (Homo sapiens, UniProt P61073)
Assay: Inhibition of SDF-1α-induced intracellular calcium release (Fura-2/AM, HeLa and U87 cells expressing CXCR4)
Type: cell-based
Details: for Concentration, required for complete inhibition of [Ca ^2+ i] release: Table 1; for Concentration, required for complete inhibition of [Ca ^2+ i] release / Concentration, required for inhibition of signal transduction: SDF-1α-induced intracellular calcium release; for Concentration, required for complete inhibition of [Ca^2+ I] release: Table 3, peptides from second transmembrane domain of CXCR4; for decrease in antagonist potency relative to F-2-2: structure-activity text on second transmembrane domain peptides; for Concentration, required for inhibition of signal transduction: Table 2
Method: The effect of the peptides on CXCR4-mediated calcium fluxes in HeLa cells that naturally express the CXCR4 receptor and U87 cells stably expressing the CXCR4 receptor was tested as follows. Cells grown on Nunc cover glass chamber slides were incubated with 1 micromolar Fura-2/AM for 20 min in a CO2-incubator, rinsed with PBS and mounted on the stage of a Zeiss Axiovert inverted microscope. [Ca^2+]i measurements were performed using an Attofluor digital imaging system (Atto Instruments, Rockville, MD). Fluorescence of Fura was excited at alternating wavelength of 340 and 380 nm. Fluorescence was monitored by an intensified CCD camera using a 505 cut-off filter. Calibrations of [Ca^2+]i signals were performed using Ca^2+ standards containing 1 micromolar Fura. CXCR4 antagonists were tested on HeLa cells and U87 cells. Stromal cell-derived factor-1α (SDF-1α) was used as a specific CXCR4 agonist.
CCR5 antagonists, which were used in selectivity studies as described below, were tested on HEK (human kidney […]) cells stably expressing the CCR5 receptor and RANTES was used as an agonist. The antagonist activity of the peptides was evaluated by measuring the inhibition of agonist-evoked intracellular Ca^2+i release. These measurements were carried out in Fura-2/AM-treated cells, utilizing an Attofluor digital imaging system as described above. The agonist was SDF-1α.
Further optimization and structure-activity studies allowed to obtain antagonists derived from all but the third and fifth transmembrane domains (Table 2). Table 1. Activity of synthetic peptides corresponding to predicted transmembrane domains of CXCR4 in inhibition of SDF-1α-induced intracellular calcium release.
Table 2. Biological activity of CXCR4 antagonists derived from different transmembrane domains. Anti signaling activity was determined in inhibition of SDF-1α-induced intracellular calcium release. Anti-HIV-1 activity was assessed in cytoprotection assay utilizing CEM-SS cells infected with HIV-1RF.

Chain of CXCR4 (P61073 whole entry): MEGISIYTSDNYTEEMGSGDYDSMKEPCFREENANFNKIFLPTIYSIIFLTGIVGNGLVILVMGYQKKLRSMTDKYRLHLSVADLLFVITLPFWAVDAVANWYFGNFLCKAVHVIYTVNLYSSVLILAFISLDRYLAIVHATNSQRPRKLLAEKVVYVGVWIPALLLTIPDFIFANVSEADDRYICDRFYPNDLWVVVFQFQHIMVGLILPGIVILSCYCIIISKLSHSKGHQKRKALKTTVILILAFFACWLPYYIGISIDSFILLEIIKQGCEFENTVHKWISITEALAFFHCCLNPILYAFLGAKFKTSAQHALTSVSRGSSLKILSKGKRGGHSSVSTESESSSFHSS

| Structure (SMILES) | Concentration, required for complete inhibition of [Ca ^2+ i] release | Concentration, required for complete inhibition of [Ca^2+ I] release | decrease in antagonist potency relative to F-2-2 | other results |
| --- | --- | --- | --- | --- |
| CC[C@H](C)[C@H](NC(=O)[C@H](CC(C)C)NC(=O)[C@@H](NC(=O)[C@H](CO)NC(=O)[C@H](CO)NC(=O)[C@H](Cc1ccc(O)cc1)NC(=O)[C@H](CC(C)C)NC(=O)[C@H](CC(N)=O)NC(=O)[C@@H](NC(=O)[C@@H](NC(=O)[C@H](Cc1ccc(O)cc1)NC(=O)[C@@H](NC(=O)[C@@H](NC(=O)[C@H](Cc1c[nH]cn1)NC(=O)[C@@H](NC(=O)[C@H](C)NC(=O)[C@@H](N)CCCCN)C(C)C)C(C)C)[C@@H](C)CC)[C@@H](C)O)C(C)C)C(C)C)C(=O)N[C@@H](CC(C)C)C(=O)N[C@@H](C)C(=O)N[C@@H](Cc1ccccc1)C(=O)N[C@H](C(=O)N[C@@H](CO)C(=O)N[C@@H](CC(C)C)C(N)=O)[C@@H](C)CC [Peptide F-3-1] (H-KAVHVIYTVNLYSSVLILAFISL-NH2) | > 50 //M µM |  |  |  |
| CC[C@H](C)[C@H](NC(=O)[C@@H](NC(=O)[C@H](Cc1ccccc1)NC(=O)[C@H](CC(C)C)NC(=O)[C@H](CC(C)C)NC(=O)[C@H](CC(=O)O)NC(=O)[C@H](C)NC(=O)[C@@H](NC(=O)[C@H](CO)NC(=O)[C@@H](N)CC(C)C)C(C)C)C(C)C)C(=O)N[C@H](C(=O)N[C@@H](CC(C)C)C(=O)N1CCC[C@H]1C(=O)N[C@@H](Cc1ccccc1)C(=O)N[C@@H](Cc1c[nH]c2ccccc12)C(=O)N[C@@H](C)C(=O)N[C@H](C(=O)N[C@@H](CC(=O)O)C(=O)N[C@@H](C)C(=O)N[C@H](C(=O)N[C@@H](C)C(=O)N[C@@H](CC(N)=O)C(=O)N[C@@H](CC(=O)O)C(=O)N[C@@H](CC(=O)O)C(=O)O)C(C)C)C(C)C)[C@@H](C)O [Peptide F-2-6] (H-LSVADLLFVITLPFWAVDAVANDD-OH) |  | 20 µM |  |  |
| CC[C@H](C)[C@H](NC(=O)[C@@H](NC(=O)[C@H](Cc1ccccc1)NC(=O)[C@H](CC(C)C)NC(=O)[C@@H](N)CC(C)C)C(C)C)C(=O)N[C@H](C(=O)N[C@@H](CC(C)C)C(=O)N1CCC[C@H]1C(=O)N[C@@H](Cc1ccccc1)C(=O)N[C@@H](Cc1c[nH]c2ccccc12)C(=O)N[C@@H](C)C(=O)N[C@H](C(=O)N[C@@H](CC(=O)O)C(=O)N[C@@H](C)C(=O)N[C@H](C(=O)N[C@@H](C)C(=O)N[C@@H](CC(N)=O)C(=O)N[C@@H](Cc1c[nH]c2ccccc12)C(=O)N[C@@H](Cc1ccc(O)cc1)C(=O)N[C@@H](Cc1ccccc1)C(=O)NCC(=O)N[C@@H](CC(N)=O)C(=O)N[C@@H](CCCCN)C(=O)N[C@@H](CCCCN)C(=O)O)C(C)C)C(C)C)[C@@H](C)O [Peptide F-2-8] (H-LLFVITLPFWAVDAVANWYFGNKK-OH) |  | 20 µM | 100 fold |  |
| CC[C@H](C)[C@H](NC(=O)CNC(=O)[C@@H](NC(=O)[C@H](Cc1ccc(O)cc1)NC(=O)[C@H](Cc1ccc(O)cc1)NC(=O)[C@@H]1CCCN1C(=O)[C@H](CC(C)C)NC(=O)[C@H](Cc1c[nH]c2ccccc12)NC(=O)[C@H](CS)NC(=O)[C@H](C)NC(=O)[C@H](Cc1ccccc1)NC(=O)[C@H](Cc1ccccc1)NC(=O)[C@H](C)NC(=O)[C@H](CC(C)C)NC(=O)[C@@H](NC(=O)[C@H](CC(C)C)NC(=O)[C@@H](NC(=O)[C@@H](N)C(C)C)[C@@H](C)CC)[C@@H](C)CC)[C@@H](C)CC)C(=O)N[C@@H](CO)C(=O)N[C@H](C(=O)N[C@@H](CC(=O)O)C(=O)O)[C@@H](C)CC [Peptide F-6-1] (H-VILILAFFACWLPYYIGISID-OH) | 10 µM |  |  | Concentration, required for inhibition of signal transduction: 10 µM |
| CC[C@H](C)[C@H](NC(=O)[C@@H](NC(=O)[C@H](Cc1ccccc1)NC(=O)[C@H](CC(C)C)NC(=O)[C@@H](N)CC(C)C)C(C)C)C(=O)N[C@H](C(=O)N[C@@H](CC(C)C)C(=O)N1CCC[C@H]1C(=O)N[C@@H](Cc1ccccc1)C(=O)N[C@@H](Cc1c[nH]c2ccccc12)C(=O)N[C@@H](C)C(=O)N[C@H](C(=O)N[C@@H](CC(=O)O)C(=O)N[C@@H](C)C(=O)N[C@H](C(=O)N[C@@H](C)C(=O)N[C@@H](CC(N)=O)C(=O)N[C@@H](CC(=O)O)C(=O)N[C@@H](CC(=O)O)C(=O)O)C(C)C)C(C)C)[C@@H](C)O [Peptide F-2-5, LLFVITLPFWAVDAVANDD-OH] (H-LLFVITLPFWAVDAVANDD-OH) |  | 10 µM |  |  |
| CC[C@H](C)[C@H](NC(=O)[C@@H](NC(=O)[C@H](Cc1ccccc1)NC(=O)[C@H](CC(C)C)NC(=O)[C@@H](N)CC(C)C)C(C)C)C(=O)N[C@H](C(=O)N[C@@H](CC(C)C)C(=O)N1CCC[C@H]1C(=O)N[C@@H](Cc1ccccc1)C(=O)N[C@@H](Cc1c[nH]c2ccccc12)C(=O)N[C@@H](C)C(=O)N[C@H](C(=O)N[C@@H](CC(=O)O)C(=O)N[C@@H](C)C(=O)N[C@H](C(=O)N[C@@H](C)C(=O)N[C@@H](CC(N)=O)C(=O)N[C@@H](Cc1c[nH]c2ccccc12)C(=O)N[C@@H](Cc1ccc(O)cc1)C(=O)N[C@@H](Cc1ccccc1)C(=O)NCC(=O)N[C@@H](CC(N)=O)C(=O)N[C@@H](CC(=O)O)C(=O)N[C@@H](CC(=O)O)C(=O)O)C(C)C)C(C)C)[C@@H](C)O [Peptide F-2-2] (H-LLFVITLPFWAVDAVANWYFGNDD-OH) |  | 0.2 µM |  | concentration at which signal transduction is completely blocked / signaling inhibited: 0.2 µM; Concentration, required for inhibition of signal transduction: 0.2 µM |
| CC[C@H](C)[C@H](NC(=O)CNC(=O)[C@@H](NC(=O)[C@H](CC(C)C)NC(=O)[C@H](Cc1ccccc1)NC(=O)[C@@H](NC(=O)[C@@H](NC(=O)[C@H](CO)NC(=O)[C@H](Cc1ccc(O)cc1)NC(=O)[C@@H](NC(=O)[C@@H](NC(=O)[C@@H]1CCCN1C(=O)[C@H](CC(C)C)NC(=O)[C@H](Cc1ccccc1)NC(=O)[C@@H](NC(=O)[C@H](CC(=O)O)NC(=O)[C@@H](N)CC(=O)O)[C@@H](C)CC)[C@@H](C)O)[C@@H](C)CC)[C@@H](C)CC)[C@@H](C)CC)[C@@H](C)O)C(=O)N[C@H](C(N)=O)C(C)C [Peptide F-1-5, DDIFLPTIYSIIFLTGIV-HN2] (H-DDIFLPTIYSIIFLTGIV-NH2) | > 30 µM |  |  |  |
| CC[C@H](C)[C@H](NC(=O)[C@@H](NC(=O)[C@H](Cc1ccccc1)NC(=O)[C@H](CC(C)C)NC(=O)[C@@H](N)CC(C)C)C(C)C)C(=O)N[C@H](C(=O)N[C@@H](CC(C)C)C(=O)N1CCC[C@H]1C(=O)N[C@@H](Cc1ccccc1)C(=O)N[C@@H](Cc1c[nH]c2ccccc12)C(=O)N[C@@H](C)C(=O)N[C@H](C(=O)N[C@@H](CC(=O)O)C(=O)N[C@@H](C)C(=O)N[C@H](C(=O)N[C@@H](C)C(=O)N[C@@H](CC(N)=O)C(=O)N[C@@H](Cc1c[nH]c2ccccc12)C(=O)N[C@@H](Cc1ccc(O)cc1)C(=O)N[C@@H](Cc1ccccc1)C(=O)NCC(=O)N[C@@H](CC(N)=O)C(=O)O)C(C)C)C(C)C)[C@@H](C)O [Peptide F-2-1] (H-LLFVITLPFWAVDAVANWYFGN-OH) | 5 µM | 5 µM | more than ten-fold |  |
| CC[C@H](C)[C@H](NC(=O)[C@H](Cc1ccccc1)NC(=O)[C@H](CC(=O)O)NC(=O)[C@@H]1CCCN1C(=O)[C@@H](NC(=O)[C@@H](NC(=O)[C@H](CC(C)C)NC(=O)[C@H](CC(C)C)NC(=O)[C@H](CC(C)C)NC(=O)[C@H](C)NC(=O)[C@@H]1CCCN1C(=O)[C@@H](NC(=O)[C@H](Cc1c[nH]c2ccccc12)NC(=O)[C@@H](NC(=O)CNC(=O)[C@@H](NC(=O)[C@H](Cc1ccc(O)cc1)NC(=O)[C@@H](NC(=O)[C@@H](N)CCCCN)C(C)C)C(C)C)C(C)C)[C@@H](C)CC)[C@@H](C)O)[C@@H](C)CC)C(=O)N[C@@H](Cc1ccccc1)C(=O)O [Peptide F-4-1] (H-KVYVGVWIPALLLTIPDFIF-OH) | > 50 µM |  |  | antagonist activity on CXCR4 signaling (in words): abolished the antagonist activity |
| CC[C@H](C)[C@H](NC(=O)[C@@H](N)C(C)C)C(=O)N[C@H](C(=O)N[C@@H](CC(C)C)C(=O)N1CCC[C@H]1C(=O)N[C@@H](Cc1ccccc1)C(=O)N[C@@H](Cc1c[nH]c2ccccc12)C(=O)N[C@@H](C)C(=O)N[C@H](C(=O)N[C@@H](CC(=O)O)C(=O)N[C@@H](C)C(=O)N[C@H](C(=O)N[C@@H](C)C(=O)N[C@@H](CC(N)=O)C(=O)N[C@@H](Cc1c[nH]c2ccccc12)C(=O)N[C@@H](Cc1ccc(O)cc1)C(=O)N[C@@H](Cc1ccccc1)C(=O)NCC(=O)N[C@@H](CC(N)=O)C(=O)N[C@@H](CCCCN)C(=O)N[C@@H](CCCCN)C(=O)O)C(C)C)C(C)C)[C@@H](C)O [Peptide F-2-4] (H-VITLPFWAVDAVANWYFGNKK-OH) |  | > 50 µM | 20 fold |  |
